Among all 420,000 compounds or so, about 64,000 (15%) were called active. Inconclusive means that the source gave no clear call. Such entries were picked first, then a sample of the others. Calls follow the shape of the dose curve; as a rule, active = well fitted inhibition curve with a large enough effect; inconclusive = small, poorly fitted or top-dose-only effect; inactive = flat fitted curve, though single readings scatter. Potencies of inconclusive entries are left out as doubtful fits.
experiment: qHTS for Inhibitors of human tyrosyl-DNA phosphodiesterase 1 (TDP1): qHTS in cells in absence of CPT; conditions: DT40 Tdp1-/- hTDP1 cells, no CPT, ATP luminescence, 48 h; activity change, negative = growth inhibition: at 46.2 µM (top of the series); also: nearly all actives have a fitted effect of over 55% in size
In short: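 Chicken DT40 Tdp1-/- cells complemented with human TDP1, screened without camptothecin (DMSO vehicle only), 400 cells/well. Compounds pin-transferred, cells incubated at 37 °C for at least 48 hr. Growth read as ATP-dependent luminescence (CellTiter-Glo, 30 min at RT).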
% is scaled to controls: 0 for no effect and ±100 for the full control effect; potency is read from the fitted curve at half-maximal effect; tags tell the direction and shape of the fitted curve.

Row | SMILES | Potency | activity change, negative = growth inhibition
1 | CC(C)N=c1scc(-c2ccco2)n1/N=C/c1ccc(O)c(O)c1 | active: 1.46 µM | 
2 | O=C(O)C1(O)C[C@H](O)C(O)[C@@H](O)C1 (stereo not given in full) | inactive | 
3 | N#Cc1ccccc1S(=O)(=O)N1CCN(c2nc(-c3cccnc3)nc3ccccc23)CC1 | inconclusive [inhibitor, single point] | 
4 | C/C=C/c1ccc(OCC(=O)Nc2cc(C(F)(F)F)ccc2N2CCOCC2)c(OC)c1 | inconclusive [inhibitor, single point] | 
5 | COc1ccc(NC(=O)CCCOc2ccc(C)cc2)cc1S(=O)(=O)N1CCCCC1 | inconclusive [inhibitor, single point] | 
6 | Cc1cccc(Cc2c(C)nc3nc(SCc4cccc(F)c4)nn3c2C)c1 | inconclusive [inhibitor, single point] | 
7 | O=C(c1ccco1)N1CCCC(c2ccccc2)C1 (stereo not given) | inactive | 
8 | Cc1ccc2nc(SCC(=O)Nc3ccc4c(c3)OCCO4)[nH]c2c1 | inconclusive [inhibitor, single point] | 
9 | CCOc1cc(/C=C2\CCn3c2nc2cc(Cl)ccc2c3=O)ccc1O | inconclusive [inhibitor, partial curve] | 
10 | Cc1ccc(S(=O)(=O)NCCC2(C(C)C)CCOC(C)(C)C2)cc1 (stereo not given) | inconclusive [inhibitor, partial curve] | 
11 | CCOc1cc(S(=O)(=O)NCc2ccccc2)ccc1F | inconclusive [inhibitor, single point] | 
12 | Cn1c(C(=O)NCCCN2CCc3ccccc3C2)cc2c(=O)n(C)c3ccccc3c21 | inconclusive [inhibitor, single point] | 
13 | O=C(NNc1ccc(C2CCCCC2)cc1)C(O)(c1ccccc1)c1cccs1 (stereo not given) | inconclusive [inhibitor, single point] | 
14 | COc1ccc(NC(=O)N2CCN(c3cccc(C(F)(F)F)c3)CC2)cc1OC | active: 11.6 µM | 
15 | CCCC(=O)Nc1ccc(C2C(=O)c3ccccc3C2=O)cc1 | inconclusive [inhibitor, single point] | 
16 | COc1ccc2cc(C(c3nnnn3C3CCCC3)N3CCc4ccccc4C3)c(=O)[nH]c2c1 (stereo not given) | active: 18.4 µM | 
17 | COc1ccc(CCNC(=O)CCOc2ccc(C(C)(C)C)cc2)cc1OC | inconclusive [inhibitor, single point] | 
18 | Cc1ccc(S(=O)(=O)NCC(=O)N2CCOCCOCCOCC2)cc1 | inactive | 
19 | CC(C)Cc1ccc(S(=O)(=O)N2CCOCC2)cc1 | inactive | 
20 | CCOC(=O)c1cc(-c2ccco2)nc2c1c(C)nn2-c1cccc(Cl)c1 | inconclusive [inhibitor, single point] | 
21 | COCCNC(=O)c1cc(C(=O)CC(C)C)c[nH]1 | inactive | 
22 | CC(C)(C)S(=O)N1Cc2cc(C(=O)NCc3ccc4c(c3)OCO4)nc(-c3cccc(-c4ccccc4)c3)c2[C@@H]1CCO (stereo not given in full) | inconclusive [inhibitor, single point] | 
23 | COc1ccc(CC(=O)NNC2=Nc3cccc4cccc2c34)cc1OC | inconclusive [inhibitor, partial curve] | 

Row | SMILES | Potency | activity change, negative = growth inhibition
24 | O=C(c1cc(S(=O)(=O)N2CCOCC2)ccc1F)N1CCCc2ccccc21 | inconclusive [inhibitor, partial curve] | 
25 | COc1ccc(/C=N/NC(=O)c2ccccc2)cc1OS(=O)(=O)c1ccccc1 | active: 13 µM | 
26 | Cc1ccc(NC(=O)CNc2cccc(Br)c2)cc1S(=O)(=O)N1CCOCC1 | active: 16.4 µM | 
27 | CCOc1nc(SCCOc2ccc(C)cc2)nc(N(C)C)n1 | inconclusive [inhibitor, single point] | 
28 | COC(=O)c1ccc(NC(=O)CN(C)S(=O)(=O)c2ccc(OC)c(C)c2)cc1 |  | inconclusive: -31.3% [inhibitor]
29 | Clc1ccccc1-c1nnc(CNC2CC2)o1 | inactive | 
30 | Cc1ccc(Cn2ccnc2SCC(=O)NC2CCCC2)cc1 | inconclusive [inhibitor, partial curve] | 
31 | COc1ccc(CCN2CC(C(=O)N(C)CCc3cn[nH]c3)CCC2=O)cc1 (stereo not given) | inactive | 
32 | Cn1c(=O)[nH]c(=O)c2c1nc(N/N=C/c1ccncc1)n2Cc1ccc(F)cc1 | inconclusive [inhibitor, single point] | 
33 | CCOc1ccc(CCNC(=O)CN2C(=O)COc3ccc(S(=O)(=O)N(CC)CC)cc32)cc1 | inconclusive [inhibitor, single point] | 
34 | O=C(O)c1ccc(N=Nc2c(O)[nH]c3ccccc23)cc1 | inconclusive [inhibitor, single point] | 
35 | CNC(=O)C(=O)NCCN1CCN(C(=O)c2ccc([N+](=O)[O-])cc2)CC1 | inactive | 
36 | O=C(Nc1ccc(Cl)cn1)C1CCN(S(=O)(=O)c2cccs2)CC1 | inconclusive [inhibitor, single point] | 
37 | COc1ccc([C@@H]2[C@@H]3C(=O)N(C(C)(C)C)C(=O)[C@@H]3[C@]3(Cc4ccccc4)C(=O)N(c4ccc(Br)cc4)C(=O)N23)cc1 | active: 23.1 µM | 
38 | Cc1c(C(=O)NCc2ccc(C#N)cc2)sc(=O)n1Cc1ccc(C(=O)N(C)C)cc1 | inconclusive [inhibitor, full curve, poor fit] | 
39 | CS(=O)(=O)N(CC(=O)Nc1ccccc1C(=O)NCc1ccccc1)c1ccc2c(c1)OCCO2 | inconclusive [inhibitor, single point] | 
40 | CCOC(=O)CCN1C(=O)c2ccccc2Sc2ncccc21 | inactive | 
41 | CCOc1ccc2nc(NC(=O)c3ccccn3)sc2c1 | active: 0.651 µM | 
42 | Nc1nc(N)c2c(Oc3ccc(F)cc3)cccc2n1 | active: 1.78 µM | 
43 | COc1ccc(NC(=O)C2CC(c3ccccc3O)=NO2)cc1OC (stereo not given) | inactive | 
44 | Nc1nc(Nc2ccccc2F)nc(N2CCCC2)c1[N+](=O)[O-] | inconclusive [inhibitor, partial curve] | 
45 | Cc1cccc(N(C(=O)c2cnc3n(c2=O)CCS3)C2CCCCC2)c1 | inconclusive [inhibitor, single point] | 
